# Measured values: PubChem BioAssay (Tox21)
# Where “and” joins values, the source holds several entries; their conditions need not be identical. Identical values can stand only once. Inconclusive results, whose numbers are uncertain, are shown with a selection of clear calls. For part of these data: Potencies beside an inconclusive call are fits to weak or partial responses and may not hold up. The source holds several records for some structures; these can differ, active in one and inactive in another. Calls of active or inactive are those of the source. Unless noted, calls follow the shape of the dose curve; as a rule, active = well fitted curve in the direction sought with a large enough effect in the repeat runs; inconclusive = weak or mixed curves; inactive = no such curve, though single readings can be large; an effect the other way counts as inactive or inconclusive.
# Columns and labels:
# [1] = qHTS assay to identify small molecule agonists of the androgen receptor (AR) signaling pathway in the presence of an antagonist - cell viability counter screen (AID 1259379); also: nearly all actives have a fitted effect of over 25% in size; also: potency is read from the fitted curve at half-maximal effect
# In short: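 MDA-kb2 human breast carcinoma cells (stable MMTV-luciferase, AR/GR responsive) were seeded 3,000 cells/well, pre-incubated 5 hr at 37C without CO2, then given 3.0uM nilutamide and compounds at 15 concentrations for 16 hr. Viability was read by CellTiter-Fluor fluorescence.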
# [2] = qHTS assay to identify small molecule agonists of the estrogen receptor beta (ER-beta) signaling pathway - cell viability counter screen (AID 1259380); also: potency is read from the fitted curve at half-maximal effect; nearly all actives have a fitted effect of over 30% in size
# In short: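 ER-beta-UAS-bla HEK293T cells in medium with 2% charcoal-stripped FBS were preincubated 6 hr at 37C, dosed with compound in DMSO for 16 hr, then after the bla read, CellTiter-Glo was added for 30 min at room temperature; luminescence recorded.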
# [3] = biological target: Thyrotropin receptor (Homo sapiens) (UniProt P16473); test: qHTS assay to identify small molecule antagonists of the thyroid stimulating hormone receptor (TSHR) signaling pathway (AID 1259385; calls by dose curve; also: potency is read from the fitted curve at half-maximal effect; as to activity change, negative = inhibition: % is scaled to controls: 0 for no effect and ±100 for the full control effect; as to all read-outs here: nearly all actives have a fitted effect of over 20% in size); conditions: TSHR-HEK293 cAMP HTRF, TSH-stimulated antagonist mode; for Potency: activity change, negative = inhibition: at 92.4 µM (top of the series) unless noted
# UniProt P16473, sequence (P16473 whole entry, looked up): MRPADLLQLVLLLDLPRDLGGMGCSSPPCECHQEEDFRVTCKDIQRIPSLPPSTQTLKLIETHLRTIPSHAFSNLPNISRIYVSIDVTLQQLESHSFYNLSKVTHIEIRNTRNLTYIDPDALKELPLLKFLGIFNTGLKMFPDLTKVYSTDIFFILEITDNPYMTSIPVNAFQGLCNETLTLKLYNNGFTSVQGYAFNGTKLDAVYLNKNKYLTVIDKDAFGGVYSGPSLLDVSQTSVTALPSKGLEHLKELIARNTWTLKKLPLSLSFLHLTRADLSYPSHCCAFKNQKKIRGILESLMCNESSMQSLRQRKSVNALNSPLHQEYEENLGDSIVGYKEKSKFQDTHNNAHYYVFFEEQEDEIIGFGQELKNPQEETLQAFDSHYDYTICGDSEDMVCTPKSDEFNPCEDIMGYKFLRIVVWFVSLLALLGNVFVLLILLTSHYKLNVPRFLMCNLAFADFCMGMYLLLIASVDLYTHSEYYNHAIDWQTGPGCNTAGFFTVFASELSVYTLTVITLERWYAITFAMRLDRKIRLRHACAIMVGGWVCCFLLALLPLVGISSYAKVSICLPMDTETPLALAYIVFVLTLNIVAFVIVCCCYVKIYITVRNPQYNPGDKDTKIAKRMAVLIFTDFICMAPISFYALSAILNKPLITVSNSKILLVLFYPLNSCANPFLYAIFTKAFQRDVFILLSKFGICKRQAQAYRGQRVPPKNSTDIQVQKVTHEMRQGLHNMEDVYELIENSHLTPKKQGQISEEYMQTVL
# In short: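 TSHR-HEK293 cells (800/well) plated 18 h, then compounds with Ro20-1724 and TSH at 1.5 ng/mL final, 30 min at room temperature. cAMP quantified by HTRF (cAMP-d2/anti-cAMP-cryptate, 1 h); 15 concentrations in triplicate.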
# [4] = biological target: Progesterone receptor (Homo sapiens) (UniProt P06401); test: qHTS assay to identify small molecule agonists of the progesterone receptor (PR) signaling pathway (AID 1346784; calls by dose curve; also: nearly all actives have a fitted effect of over 30% in size; also: potency is read from the fitted curve at half-maximal effect; as to activation: % is scaled to controls: 0 for no effect and ±100 for the full control effect); conditions: PR-UAS-bla HEK293T, beta-lactamase FRET ratio, 16 h; activation: at 92.4 µM (top of the series) unless noted
# UniProt P06401, sequence (P06401 whole entry, looked up): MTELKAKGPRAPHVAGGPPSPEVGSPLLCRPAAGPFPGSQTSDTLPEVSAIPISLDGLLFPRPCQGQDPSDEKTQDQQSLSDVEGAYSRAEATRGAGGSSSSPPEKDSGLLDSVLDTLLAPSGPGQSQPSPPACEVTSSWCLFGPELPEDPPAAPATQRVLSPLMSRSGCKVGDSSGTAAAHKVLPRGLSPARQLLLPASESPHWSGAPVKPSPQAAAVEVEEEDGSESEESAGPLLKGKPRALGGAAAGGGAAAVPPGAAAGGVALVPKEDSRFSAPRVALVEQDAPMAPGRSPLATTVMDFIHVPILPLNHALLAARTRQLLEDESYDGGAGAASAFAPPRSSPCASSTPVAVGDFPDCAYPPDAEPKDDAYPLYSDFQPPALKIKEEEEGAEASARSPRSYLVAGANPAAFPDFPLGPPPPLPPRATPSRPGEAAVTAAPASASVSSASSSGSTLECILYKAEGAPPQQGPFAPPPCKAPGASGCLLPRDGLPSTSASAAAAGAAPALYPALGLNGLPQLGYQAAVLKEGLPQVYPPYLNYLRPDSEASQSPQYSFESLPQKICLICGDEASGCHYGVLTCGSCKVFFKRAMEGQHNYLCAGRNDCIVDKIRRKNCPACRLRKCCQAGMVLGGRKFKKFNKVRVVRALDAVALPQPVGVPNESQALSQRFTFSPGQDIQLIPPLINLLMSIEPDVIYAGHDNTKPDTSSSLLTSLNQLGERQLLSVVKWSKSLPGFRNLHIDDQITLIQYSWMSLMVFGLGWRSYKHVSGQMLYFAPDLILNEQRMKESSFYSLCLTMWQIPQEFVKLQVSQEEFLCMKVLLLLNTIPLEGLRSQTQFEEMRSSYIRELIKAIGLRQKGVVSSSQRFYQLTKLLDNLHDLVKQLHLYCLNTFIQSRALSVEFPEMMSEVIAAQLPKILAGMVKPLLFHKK
# In short: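 Using charcoal-stripped serum (2%) to limit endogenous steroids, PR-UAS-bla HEK 293T cells received compounds for 16 hr at 37C after 6 hr plating; beta-lactamase FRET fluorescence was recorded following 2 hr substrate loading at room temperature.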
# [5] = biological target: Progesterone receptor (Homo sapiens) (UniProt P06401); test: qHTS assay to identify small molecule antagonists of the progesterone receptor (PR) signaling pathway (AID 1346795; active = well fitted inhibition curve with a large enough effect in the signal ratio in the repeat runs, not every such curve was filed as active; inconclusive = weak or mixed curves; the % refers to the signal ratio; also: potency is read from the fitted curve at half-maximal effect; as to activity change, negative = inhibition: % is scaled to controls: 0 for no effect and ±100 for the full control effect); conditions: PR-UAS-bla HEK293T, beta-lactamase FRET ratio, 16 h; activity change, negative = inhibition: at 92.4 µM (top of the series) unless noted
# In short: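 Inhibition of R5020-induced (1 nM final) beta-lactamase reporter signal in PR-UAS-bla HEK293T cells was scored by FRET fluorescence after overnight (16 hr) compound treatment.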
# [6] = qHTS assay to identify small molecule agonists of the TGF-beta/Smad signaling pathway (AID 1346859; active = well fitted activation curve with a large enough effect in the signal ratio in the repeat runs, not every such curve was filed as active; inconclusive = weak or mixed curves; the % refers to the signal ratio; also: potency is read from the fitted curve at half-maximal effect); conditions: SBE-bla HEK293T, TGF-beta/Smad beta-lactamase reporter, 5 h; activation: at 76.8 µM (top of the series) unless noted
# In short: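 Stable Smad binding element-beta-lactamase HEK 293T cells; 5 hr compound exposure at 37 C under 5% CO2; 2 hr room-temperature substrate step; fluorescence excited at 405 nm, collected at 460 nm and 530 nm.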
# [7] = qHTS assay to identify small molecule antagonists of the TGF-beta/Smad signaling pathway (AID 1346924; active = well fitted inhibition curve with a large enough effect in the signal ratio in the repeat runs, not every such curve was filed as active; inconclusive = weak or mixed curves; the % refers to the signal ratio; also: potency is read from the fitted curve at half-maximal effect); conditions: SBE-bla HEK293T, TGF-beta/Smad reporter, beta-lactamase ratio
# In short: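 SBE-bla HEK 293T cells were plated overnight, then received compound in DMSO plus TGF-beta1 (added as a 0.25 ng/mL solution) and were incubated 5 h at 37 C. Beta-lactamase reporter activity was read after 2 h at room temperature with LiveBLAzer B/G FRET substrate (ex 405, em 460/530 nm).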
# [8] = qHTS assay to identify small molecule agonists or antagonists of the thyroid stimulating hormone receptor (TSHR) signaling pathway - wild type cell line counter screen (AID 1259384; calls by dose curve; also: % is scaled to controls: 0 for no effect and ±100 for the full control effect); conditions: HEK293 wild type, cAMP HTRF counter-screen
# In short: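 Wild-type Hek293 cells, 800/well, 18 h at 37C, then compound with Ro20-1724 for 30 min RT. cAMP by HTRF (cAMP-d2/anti-cAMP cryptate), 1 h RT, fluorescence read. 15 concentrations, triplicates.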
# [9] = qHTS assay to identify small molecule agonists of the estrogen receptor alpha (ER-alpha) signaling pathway in the presence of an antagonist - cell viability counter screen (AID 1259386);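 also: potency is read from the fitted curve at half-maximal effect; cells exposed to compounds for 22 h at 37 °C before the viability read; nearly all actives have a fitted effect of over 30% in size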
# In short: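 VM7Luc4E2 cells (endogenous full-length ER-alpha, 4×ERE-luciferase) were held 5 days in phenol red-free medium with 10% charcoal-stripped FBS, plated, then given 10.0nM ICI-182,780 and compounds at 15 concentrations for 22hr at 37C; viability read by CellTiter-Fluor fluorescence.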
# [10] = qHTS assay to identify small molecule antagonists of the progesterone receptor (PR) signaling pathway - cell viability counter screen (AID 1346798); also: potency is read from the fitted curve at half-maximal effect; nearly all actives have a fitted effect of over 50% in size
# In short: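 ATP content as viability readout: CellTiter-Glo luminescence, 30 min room temperature, in PR-UAS-bla HEK293T cells after 16 hr compound/R5020 treatment at 37C and 5% CO2.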
# [11] = qHTS assay to identify small molecule antagonists of the TGF-beta/Smad signaling pathway - cell viability counter screen (AID 1346824); also: % is scaled to controls: 0 for no effect and ±100 for the full control effect; nearly all actives have a fitted effect of over 50% in size
# In short: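 SBE-bla HEK 293T cells, incubated overnight, then compound plus 0.25 ng/mL TGF-beta1 (stock added) for 5 hr at 37 C. Viability was read in the same wells by CellTiter-Glo luminescence after 30 min at room temperature.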
# [12] = qHTS assay to identify small molecule agonists of the progesterone receptor (PR) signaling pathway - cell viability counter screen (AID 1346799; calls by dose curve; also: potency is read from the fitted curve at half-maximal effect; nearly all actives have a fitted effect of over 45% in size)
# In short: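 Cytotoxicity in PR-bla HEK293T cells: 16 h compound, 37C; CellTiter-Glo added post-FRET read; luminescence after 30 min RT.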
# [13] = qHTS assay to identify small molecule antagonists of the estrogen receptor beta (ER-beta) signaling pathway - cell viability counter screen (AID 1259382); also: potency is read from the fitted curve at half-maximal effect; nearly all actives have a fitted effect of over 55% in size
# In short: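 ER-beta-UAS-bla HEK293T cells (2,000/well, 2% charcoal-stripped FBS) were pre-incubated 6 hr at 37C, then given compound plus 1nM final 17-beta-estradiol for 16 hr. Viability was read in the same wells by CellTiter-Glo luminescence after 30 min at room temperature.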
# [14] = qHTS assay to identify small molecule agonists of the TGF-beta/Smad signaling pathway - cell viability counter screen (AID 1346829); also: potency is read from the fitted curve at half-maximal effect; nearly all actives have a fitted effect of over 45% in size
# In short: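 After overnight seating at 37 C and 5% CO2, reporter cells got compounds for 5 hr and FRET substrate for 2 hr; cell viability then came from CellTiter-Glo luminescence.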
# [15] = biological target: Androgen receptor (Homo sapiens) (UniProt P10275); test: qHTS assay to identify small molecule agonists of the androgen receptor (AR) signaling pathway in the presence of an antagonist (AID 1259381; calls by dose curve; also: potency is read from the fitted curve at half-maximal effect; nearly all actives have a fitted effect of over 15% in size)
# UniProt P10275, sequence (P10275 whole entry, looked up): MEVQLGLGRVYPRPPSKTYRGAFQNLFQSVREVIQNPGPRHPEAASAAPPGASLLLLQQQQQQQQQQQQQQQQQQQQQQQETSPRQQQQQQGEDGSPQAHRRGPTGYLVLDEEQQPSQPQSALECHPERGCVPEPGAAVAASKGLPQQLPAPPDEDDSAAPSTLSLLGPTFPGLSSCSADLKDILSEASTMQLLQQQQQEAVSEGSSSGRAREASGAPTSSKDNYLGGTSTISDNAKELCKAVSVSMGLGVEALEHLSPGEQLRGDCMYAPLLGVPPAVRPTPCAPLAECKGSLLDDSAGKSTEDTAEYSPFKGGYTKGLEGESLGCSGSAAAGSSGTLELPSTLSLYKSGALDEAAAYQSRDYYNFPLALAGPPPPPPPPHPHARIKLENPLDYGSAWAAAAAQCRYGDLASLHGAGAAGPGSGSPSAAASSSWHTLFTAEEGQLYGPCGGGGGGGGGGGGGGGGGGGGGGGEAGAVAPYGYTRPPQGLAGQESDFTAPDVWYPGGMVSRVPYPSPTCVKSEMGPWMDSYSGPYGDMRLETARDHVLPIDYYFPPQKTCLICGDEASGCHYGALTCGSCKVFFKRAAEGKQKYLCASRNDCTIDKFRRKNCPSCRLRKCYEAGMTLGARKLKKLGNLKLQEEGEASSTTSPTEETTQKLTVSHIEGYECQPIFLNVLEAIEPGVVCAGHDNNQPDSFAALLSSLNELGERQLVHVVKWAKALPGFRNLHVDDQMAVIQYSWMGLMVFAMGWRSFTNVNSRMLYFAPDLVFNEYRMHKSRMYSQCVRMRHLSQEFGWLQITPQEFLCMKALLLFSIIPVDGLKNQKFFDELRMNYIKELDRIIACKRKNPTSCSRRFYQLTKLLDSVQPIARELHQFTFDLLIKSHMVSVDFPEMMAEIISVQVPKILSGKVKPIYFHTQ
# In short: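 MDA-kb2 human breast carcinoma cells carrying an MMTV-luciferase reporter (AR- and GR-responsive) were treated with compounds at 15 concentrations plus 3.0uM final nilutamide for 16hr at 37C without CO2; luminescence was read after ONE-Glo addition.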
# [16] = activity, negative = inhibition: at 76.8 µM (top of the series) unless noted
# Tags tell the direction and shape of the fitted curve or compound fluorescence and quenching.
smiles,measurement,setting,value
CC1(C)O[C@@H]2C[C@H]3[C@@H]4C[C@H](F)C5=CC(=O)C=C[C@]5(C)[C@@]4(F)[C@@H](O)C[C@]3(C)[C@]2(C(=O)CO)O1,Potency,[1],inactive
same,Potency,[2],"inconclusive: 38.6 µM [cytotoxic, partial curve]"
same,Potency,[3],"inconclusive: 26.6 µM [falling, partial curve]"
same,Potency,[4],inconclusive: 0.0012 µM [full curve]
same,activation,[4],inconclusive: 94.2%
same,Potency,[5],inactive
same,Potency,[6],"inconclusive: 24.5 µM [rising, partial curve]"
same,Potency,[7]; [16],"inconclusive: 24.5 µM [rising, partial curve]"
O=[N+]([O-])c1ccc(Nc2ccc(Nc3ccccc3)c(S(=O)(=O)O)c2)c([N+](=O)[O-])c1,Potency,[1],"inconclusive: 30.6 µM [cytotoxic, partial curve]"
same,Potency,[3],"inconclusive: 68.6 µM [falling, partial curve, poor fit]"
same,Potency,[5],inactive
CN1CCc2cccc3c2[C@H]1Cc1ccc(O)c(O)c1-3,Potency,[1],active: 55 µM and active: 22.8 µM and active: 26.6 µM
same,Potency,[2],"active: 55 µM and active: 20.4 µM and inconclusive: 33.5 µM [cytotoxic, single point]"
same,cAMP activity change,"[8]; at 42.5 µM (top of the series), stronger effect = higher value",inconclusive: 0.618%
same,cAMP activity change,"[8]; at 92.4 µM (top of the series), stronger effect = higher value",inconclusive: -5.66%
same,"activity change, negative = inhibition",[3]; at 42.5 µM (top of the series),inconclusive: 0.287%
same,"activity change, negative = inhibition",[3]; at 92.4 µM (top of the series),inconclusive: -12.8%
same,Potency,[9],active: 49.1 µM and active: 22.8 µM and active: 26.6 µM
same,Potency,[4],"inconclusive: 18.1 µM [falling, partial curve, poor fit]"
same,Potency,[10],"inconclusive: 33.5 µM [rising, single point]"
same,Potency,[11],inactive
same,"activity, negative = inhibition",[7]; at 35.3 µM (top of the series),inconclusive: -1.69%
same,"activity, negative = inhibition",[7]; at 76.8 µM (top of the series),inconclusive: -5.7%
COc1ccccc1N1CCN(CCCCNC(=O)c2ccc(-c3ccc(C(C)=O)cc3)cc2)CC1,Potency,[1],"inconclusive: 4.73 µM [cytotoxic, full curve]"
same,Potency,[3],active: 18.8 µM
O=C(CCN1CCC(c2ccccc2)C1)c1ccc2c(c1)OCCO2 (stereo not given),Potency,[1],"inconclusive: 33.5 µM [cytotoxic, partial curve]"
same,Potency,[3],inactive
same,Potency,[4],"inconclusive: 29.8 µM [rising, single point]"
same,Potency,[5],inactive
same,Potency,[12],"inconclusive: 9.44 µM [cytotoxic, single point]"
NC(=NCCCCCCN=C(N)/N=C(\N)Nc1ccc(Cl)cc1)/N=C(\N)Nc1ccc(Cl)cc1,Potency,[1],active: 62.2 µM [middle of 4 runs]
same,Potency,[13],"inconclusive: 13.3 µM [cytotoxic, full curve, poor fit]"
same,Potency,[9],"inconclusive: 68 µM [cytotoxic, single point]"
same,Potency,[4],"inconclusive: 60.8 µM [cytotoxic, partial curve, poor fit]"
same,activation,[4],inconclusive: -4.65% and inconclusive: -12%
same,Potency,[5],active: 55.5 µM and inconclusive: 68.2 µM
same,"activity change, negative = inhibition",[5],inconclusive: -38.9%
same,Potency,[14],"inconclusive: 54.4 µM [cytotoxic] and inconclusive: 54.7 µM [cytotoxic, single point]"
N#[N+]c1ccc2c(S(=O)(=O)[O-])cccc2c1O,Potency,[1],"inconclusive: 54.5 µM [cytotoxic, partial curve]"
same,cAMP activity change,"[8]; cAMP activity change: at 92.4 µM (top of the series), stronger effect = higher value unless noted",inconclusive: -1.9%
same,Potency,[3],"inconclusive: 68.6 µM [falling, single point]"
same,Potency,[9],active: 43.3 µM
same,Potency,[5],"inconclusive: 2.73 µM [falling, single point]"
same,Potency,[10],"inconclusive: 1.37 µM [cytotoxic, single point]"
Nc1nc2ccc([N+](=O)[O-])cc2s1,Potency,[1],"inconclusive: 27.3 µM [cytotoxic, partial curve]"
same,Potency,[2],"inconclusive: 68.6 µM [cytotoxic, partial curve, poor fit]"
same,Potency,[15],"inconclusive: 38.6 µM [rising, partial curve]"
same,Potency,[3],inconclusive: 68.6 µM
same,Potency,[4],"inconclusive: 68.6 µM [fluorescent, partial curve, poor fit]"
same,Potency,[5],inconclusive: 31.5 µM
same,Potency,[10],"inconclusive: 48.6 µM [cytotoxic, partial curve]"
same,Potency,[12],"inconclusive: 13.7 µM [cytotoxic, full curve, poor fit]"
same,Potency,[14],"inconclusive: 2.19 µM [cytotoxic, single point]"
same,"activity, negative = inhibition",[7]; [16],inconclusive: 0.64%
O=C1c2ccccc2C(=O)N1CCc1noc(-c2ccc(CN3CCCCCC3)s2)n1,Potency,[1],"inconclusive: 62.9 µM [cytotoxic, single point]"
same,Potency,[13],"inconclusive: 22.3 µM [cytotoxic, partial curve, poor fit]"
same,Potency,[9],"inconclusive: 44.5 µM [cytotoxic, partial curve]"
same,"activity change, negative = inhibition",[5],inconclusive: -40.6%
same,Potency,[6],"inconclusive: 44.9 µM [rising, single point]"
CO/N=C(/C(=O)N[C@@H]1C(=O)N2C(C(=O)O)=C(COC(N)=O)CS[C@H]12)c1ccco1,Potency,[1],inactive
